The values below come from a collection of fitness landscapes (doi:10.1016/j.celrep.2020.107928).

First the molecules themselves.
B1: Caulobacter ParB omega fusion; a variant is named by its letters at X, in order, B8GW30 (parent)
chain: MESVVVGEPGMSEGRRGLGRGLSALLGEVDAAPAQAPGEQLGGSREAPIEILQRNPDQPRRTFREEDLEDLSNSIREKGVLQPILVRPSPDTAGEYQIVAGERAWRAAQRAGLKTVPIMVRELDDLAVLEIGIIENVQRADLNVLEEALSYKVLMEKFERTQENIAQTIGKSXSHVANXMRLLXLPDEVQSYLVSGELTAXHARAIAAAADPVALAKQIIEGGLSVRETEALARKAPNLSAGKSKGGRPPRVKDTDTQALESDLSSVLGLDVSIDHRGSTGTLTITYATLEQLDDLCNRLTRGI

Over roughly 81,000 sequences, “one-hybrid fitness for binding NBS DNA” has its median near -0.1; the highest 2% begin near 0.36. Some of the results follow. Where only a bound is given, the exact number is not on record here.

The variants in this assay derive from B1. As to the kind of experiment: one-hybrid fitness for binding NBS DNA (the Noc-binding site; scaled: cognate 1, non-cognate 0); higher = stronger binding. Conditions: with NBS DNA site. The method in brief:
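Caulobacter ParB libraries with four specificity codons randomised were screened by bacterial one-hybrid selection in the E. coli USO strain, using a HIS3 reporter whose site lies 19 bp from the promoter. Selection ran for 48 hours at 37°C on M9 lacking histidine, with 0.1 mM IPTG and 5 mM 3-AT. Plasmids were Illumina-sequenced before and after selection, three replicate libraries were pooled, and variants with under 10 reads were dropped. Fitness is the log change in each variant's read ratio to wild type, rescaled against the cognate and non-cognate sites.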
As for ITVR, the “one-hybrid fitness for binding NBS DNA” value was at most 0.2.

On to SIHC, for which the “one-hybrid fitness for binding NBS DNA” value was at most 0.2.

Turning to RKYK, the “one-hybrid fitness for binding NBS DNA” value was at most 0.2.

On to QQKT, for which the “one-hybrid fitness for binding NBS DNA” value is 0.811.

Take EAVQ: the “one-hybrid fitness for binding NBS DNA” value is at most 0.2.

As for QMPF, the “one-hybrid fitness for binding NBS DNA” value was at most 0.2.

As for GNPI, the “one-hybrid fitness for binding NBS DNA” value is at most 0.2.

For TQRK, the “one-hybrid fitness for binding NBS DNA” value is at most 0.2.

In the case of SRLI, the “one-hybrid fitness for binding NBS DNA” value is at most 0.2.

Consider TYPW, for which the “one-hybrid fitness for binding NBS DNA” value was at most 0.2.

Regarding LQMR, the “one-hybrid fitness for binding NBS DNA” value was at most 0.2.

GFSL: the “one-hybrid fitness for binding NBS DNA” value was at most 0.2.

Regarding RRPM, the “one-hybrid fitness for binding NBS DNA” value is at most 0.2.

For SCKR, the “one-hybrid fitness for binding NBS DNA” value was 0.221.

On to PDYV, for which the “one-hybrid fitness for binding NBS DNA” value was at most 0.2.

With PFPA, the “one-hybrid fitness for binding NBS DNA” value was at most 0.2.

Regarding SQLK, the “one-hybrid fitness for binding NBS DNA” value was at most 0.2.

Regarding AWDT, the “one-hybrid fitness for binding NBS DNA” value was at most 0.2.

As to YRTR, the “one-hybrid fitness for binding NBS DNA” value was at most 0.2.

Consider EHEN, for which the “one-hybrid fitness for binding NBS DNA” value was at most 0.2.

As to VVNI, the “one-hybrid fitness for binding NBS DNA” value is at most 0.2.

As for FLEM, the “one-hybrid fitness for binding NBS DNA” value was at most 0.2.

Take NYPT: the “one-hybrid fitness for binding NBS DNA” value was at most 0.2.

For the variant TELW, the “one-hybrid fitness for binding NBS DNA” value was at most 0.2.

With NQMN, the “one-hybrid fitness for binding NBS DNA” value is at most 0.2.

VHHW: the “one-hybrid fitness for binding NBS DNA” value was at most 0.2.

Take ANAD: the “one-hybrid fitness for binding NBS DNA” value was at most 0.2.

In the case of PTQE, the “one-hybrid fitness for binding NBS DNA” value is at most 0.2.

As for HQTS, the “one-hybrid fitness for binding NBS DNA” value is at most 0.2.

For the variant RKPI, the “one-hybrid fitness for binding NBS DNA” value is at most 0.2.

For the variant DAYS, the “one-hybrid fitness for binding NBS DNA” value was at most 0.2.

As to SGHT, the “one-hybrid fitness for binding NBS DNA” value was at most 0.2.

For the variant RNLD, the “one-hybrid fitness for binding NBS DNA” value was at most 0.2.

For the variant QMDT, the “one-hybrid fitness for binding NBS DNA” value was determined as 0.345.

Take TSPA: the “one-hybrid fitness for binding NBS DNA” value was at most 0.2.

Take PPGD: the “one-hybrid fitness for binding NBS DNA” value is at most 0.2.

LKCD: the “one-hybrid fitness for binding NBS DNA” value was at most 0.2.

As to RAFR, the “one-hybrid fitness for binding NBS DNA” value came out at 0.27.

On to CQTA, for which the “one-hybrid fitness for binding NBS DNA” value was at most 0.2.

As to FAPR, the “one-hybrid fitness for binding NBS DNA” value is at most 0.2.

Turning to VLCA, the “one-hybrid fitness for binding NBS DNA” value is at most 0.2.

SRGC: the “one-hybrid fitness for binding NBS DNA” value is at most 0.2.

Take QQEQ: the “one-hybrid fitness for binding NBS DNA” value was at most 0.2.

With SSRT, the “one-hybrid fitness for binding NBS DNA” value was at most 0.2.

In the case of PQSL, the “one-hybrid fitness for binding NBS DNA” value was at most 0.2.

Regarding GDHM, the “one-hybrid fitness for binding NBS DNA” value was at most 0.2.

Take PCTC: the “one-hybrid fitness for binding NBS DNA” value was at most 0.2.

For KPHD, the “one-hybrid fitness for binding NBS DNA” value is at most 0.2.

In the case of CHAR, the “one-hybrid fitness for binding NBS DNA” value is at most 0.2.

Consider GKTS, for which the “one-hybrid fitness for binding NBS DNA” value was at most 0.2.

AHEN: the “one-hybrid fitness for binding NBS DNA” value was at most 0.2.

Take FILG: the “one-hybrid fitness for binding NBS DNA” value is at most 0.2.

MVNG: the “one-hybrid fitness for binding NBS DNA” value was at most 0.2.

Regarding QTFS, the “one-hybrid fitness for binding NBS DNA” value came out at 0.391.

For LWSA, the “one-hybrid fitness for binding NBS DNA” value was at most 0.2.

In the case of QNRW, the “one-hybrid fitness for binding NBS DNA” value is at most 0.2.

Regarding TSAQ, the “one-hybrid fitness for binding NBS DNA” value was at most 0.2.

Regarding PRDF, the “one-hybrid fitness for binding NBS DNA” value is at most 0.2.

As to QGDA, the “one-hybrid fitness for binding NBS DNA” value was at most 0.2.

CAAY: the “one-hybrid fitness for binding NBS DNA” value was at most 0.2.

Regarding FQIT, the “one-hybrid fitness for binding NBS DNA” value was at most 0.2.

In the case of LCDM, the “one-hybrid fitness for binding NBS DNA” value was at most 0.2.

Take DANM: the “one-hybrid fitness for binding NBS DNA” value was at most 0.2.

As for LGGC, the “one-hybrid fitness for binding NBS DNA” value was at most 0.2.

AMTG: the “one-hybrid fitness for binding NBS DNA” value was at most 0.2.

Consider DVKL, for which the “one-hybrid fitness for binding NBS DNA” value was at most 0.2.

On to FGEV, for which the “one-hybrid fitness for binding NBS DNA” value is at most 0.2.

In the case of PCHW, the “one-hybrid fitness for binding NBS DNA” value was at most 0.2.

HDPR: the “one-hybrid fitness for binding NBS DNA” value is at most 0.2.

RGAW: the “one-hybrid fitness for binding NBS DNA” value was at most 0.2.

On to DFEG, for which the “one-hybrid fitness for binding NBS DNA” value was at most 0.2.

For CVFL, the “one-hybrid fitness for binding NBS DNA” value was at most 0.2.

Regarding RNLA, the “one-hybrid fitness for binding NBS DNA” value was at most 0.2.

For the variant LMND, the “one-hybrid fitness for binding NBS DNA” value is at most 0.2.

Consider LITF, for which the “one-hybrid fitness for binding NBS DNA” value is at most 0.2.

With HIHV, the “one-hybrid fitness for binding NBS DNA” value was at most 0.2.

Take VPMY: the “one-hybrid fitness for binding NBS DNA” value is at most 0.2.

As for ASRT, the “one-hybrid fitness for binding NBS DNA” value was at most 0.2.

In the case of INLK, the “one-hybrid fitness for binding NBS DNA” value is at most 0.2.

Take LSMM: the “one-hybrid fitness for binding NBS DNA” value is at most 0.2.

As to QMGT, the “one-hybrid fitness for binding NBS DNA” value came out at 0.447.

Consider MRIS, for which the “one-hybrid fitness for binding NBS DNA” value is at most 0.2.

Consider LGNS, for which the “one-hybrid fitness for binding NBS DNA” value was at most 0.2.

As to NQPS, the “one-hybrid fitness for binding NBS DNA” value was at most 0.2.
